{"source": "paper PMC4336329", "about": "(PLoS ONE, 2015)", "note": "Hit rate of the full screen: of about 310,000 compounds, about 2,200 (0.71%) showed an effect of 50% or more. Effects have a minus sign here. The list shows a part of the results.", "data": [{"target": "human ether-à-go-go-related gene (hERG) potassium channel (human, UniProt Q12809)", "sequence (Q12809 whole entry, looked up)": "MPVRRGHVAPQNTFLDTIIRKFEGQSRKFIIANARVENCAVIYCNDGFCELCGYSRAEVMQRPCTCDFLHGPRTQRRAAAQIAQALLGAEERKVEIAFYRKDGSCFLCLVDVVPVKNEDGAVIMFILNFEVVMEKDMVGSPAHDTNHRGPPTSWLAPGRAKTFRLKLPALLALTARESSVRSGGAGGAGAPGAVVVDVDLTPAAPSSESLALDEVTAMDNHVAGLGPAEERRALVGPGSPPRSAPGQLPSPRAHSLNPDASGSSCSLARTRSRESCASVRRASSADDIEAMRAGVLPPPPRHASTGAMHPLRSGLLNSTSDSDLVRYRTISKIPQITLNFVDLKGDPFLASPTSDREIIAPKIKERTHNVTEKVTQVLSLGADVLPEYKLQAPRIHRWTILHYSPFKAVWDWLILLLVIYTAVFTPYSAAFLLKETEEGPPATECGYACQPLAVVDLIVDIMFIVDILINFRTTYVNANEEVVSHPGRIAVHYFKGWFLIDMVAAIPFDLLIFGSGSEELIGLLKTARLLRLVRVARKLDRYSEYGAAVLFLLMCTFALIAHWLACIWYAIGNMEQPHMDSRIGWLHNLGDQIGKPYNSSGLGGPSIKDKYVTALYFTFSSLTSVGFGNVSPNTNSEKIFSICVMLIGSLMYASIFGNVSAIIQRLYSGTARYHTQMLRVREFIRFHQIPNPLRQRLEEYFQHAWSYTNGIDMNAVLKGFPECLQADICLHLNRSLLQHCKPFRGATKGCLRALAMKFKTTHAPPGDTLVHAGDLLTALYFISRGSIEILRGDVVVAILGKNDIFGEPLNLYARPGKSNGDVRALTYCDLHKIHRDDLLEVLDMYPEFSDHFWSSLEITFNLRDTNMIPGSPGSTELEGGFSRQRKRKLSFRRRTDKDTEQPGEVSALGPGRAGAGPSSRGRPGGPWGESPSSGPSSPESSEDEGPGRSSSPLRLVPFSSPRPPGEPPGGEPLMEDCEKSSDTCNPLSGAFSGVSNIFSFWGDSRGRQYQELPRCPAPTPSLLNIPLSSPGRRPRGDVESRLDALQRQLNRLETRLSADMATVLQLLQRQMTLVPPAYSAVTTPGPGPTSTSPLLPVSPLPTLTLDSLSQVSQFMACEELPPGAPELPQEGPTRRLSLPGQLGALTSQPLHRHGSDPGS", "assay": "primary screen, population patch clamp on CHO cells stably expressing hERG", "units": {"hERG current change (%, negative = inhibition) at 1uM": "%"}, "values": [{"smiles": "Cc1ccc(CN=C2NC(=O)C(CC(=O)NCCc3ccccc3)S2)cc1", "note": "(stereo not shown)", "hERG current change (%, negative = inhibition) at 1uM": 3.58}, {"smiles": "CN(C)c1ccc(C(=S)N2CCCCCC2)cc1", "hERG current change (%, negative = inhibition) at 1uM": 8.13}, {"smiles": "CCOC(=O)c1cc2c(ccn2C)n1Cc1ccccc1Cl", "hERG current change (%, negative = inhibition) at 1uM": -0.512}, {"smiles": "CCc1ccccc1N1CCN(S(=O)(=O)c2ccc(F)c(C)c2)CC1", "hERG current change (%, negative = inhibition) at 1uM": 14.2}, {"smiles": "Cc1nc(-c2cccs2)ccc1C(=O)O", "hERG current change (%, negative = inhibition) at 1uM": -8.08}, {"smiles": "COc1ccc(/C=C/C(=O)c2ccccc2)cc1COc1ccccc1F", "hERG current change (%, negative = inhibition) at 1uM": 3.82}, {"smiles": "CCc1nn(C(C)C(=O)NCCN2CCCCCC2)c(=O)c2cc3occc3n12", "note": "(stereo not shown)", "hERG current change (%, negative = inhibition) at 1uM": 8.13}, {"smiles": "COc1ccc(NS(=O)(=O)c2cccc3ccccc23)cc1", "hERG current change (%, negative = inhibition) at 1uM": 10.7}, {"smiles": "O=C(COC(=O)Cc1ccccc1F)NNC(=O)c1ccc(Cl)cc1", "hERG current change (%, negative = inhibition) at 1uM": 9.41}, {"smiles": "O=C(NCc1ccco1)c1cccc(NC(=O)c2ccccc2)c1", "hERG current change (%, negative = inhibition) at 1uM": 7.19}, {"smiles": "COC(=O)c1nc2n(n1)C(c1ccccc1OC)C1=C(CCCC1=O)N2", "note": "(stereo not shown)", "hERG current change (%, negative = inhibition) at 1uM": 4.99}, {"smiles": "Cc1cc(C)c(S(=O)(=O)NCC(c2ccco2)N2CCc3ccccc3C2)c(C)c1", "note": "(stereo not shown)", "hERG current change (%, negative = inhibition) at 1uM": 7.63}, {"smiles": "CCSc1ccccc1C(=O)N1CCN(Cc2ccc3c(c2)OCO3)CC1", "hERG current change (%, negative = inhibition) at 1uM": 15.9}, {"smiles": "CCN(CC)C(=O)C1CCCN(c2ccc([N+](=O)[O-])cc2/C=N/NC(=O)c2cccc(O)c2)C1", "note": "(stereo not shown)", "hERG current change (%, negative = inhibition) at 1uM": 6.83}, {"smiles": "Cc1cccc(NC(=O)CSCC(=O)NCc2ccco2)c1", "hERG current change (%, negative = inhibition) at 1uM": 3.38}, {"smiles": "CCCC(=O)C1=C(O)C(C(=O)OC)C(C)(C)CC1=NCCc1ccc(OC)c(OC)c1", "note": "(stereo not shown)", "hERG current change (%, negative = inhibition) at 1uM": -4.11}, {"smiles": "O=C(NCc1ccc(F)cc1)N[C@@H](Cc1ccccc1)C(=O)O", "hERG current change (%, negative = inhibition) at 1uM": 2}, {"smiles": "Cc1ccnc(NC(=O)Cn2ccc([N+](=O)[O-])n2)c1", "hERG current change (%, negative = inhibition) at 1uM": -0.76}, {"smiles": "COc1cccc2cc(/C(=N/O)c3ccc(Br)cc3)oc12", "hERG current change (%, negative = inhibition) at 1uM": 8.74}, {"smiles": "O=C(NC1CCCCCC1)c1ccc(CS(=O)(=O)Cc2ccc(F)cc2)o1", "hERG current change (%, negative = inhibition) at 1uM": 13.3}, {"smiles": "NC(=O)c1cc([N+](=O)[O-])ccc1NCCN1C(=O)c2ccccc2C1=O", "hERG current change (%, negative = inhibition) at 1uM": 14.5}, {"smiles": "Cc1ccc(SCc2cc(=O)[nH]c(N3CCCCC3)n2)cc1", "hERG current change (%, negative = inhibition) at 1uM": -2.22}, {"smiles": "CCn1cc(S(=O)(=O)NCc2ccc3c(c2)OCO3)cn1", "hERG current change (%, negative = inhibition) at 1uM": 11.1}, {"smiles": "Cc1[nH]c2ccc(C(=O)NCc3ccccn3)cc2c1C", "hERG current change (%, negative = inhibition) at 1uM": 17.2}, {"smiles": "COCc1c(C(=O)N/N=C/c2ccco2)nnn1-c1nonc1N", "hERG current change (%, negative = inhibition) at 1uM": 15.2}, {"smiles": "O=C(CCc1nc(-c2ccccc2F)no1)N1CCC2(CC1)OCCO2", "hERG current change (%, negative = inhibition) at 1uM": 6.8}, {"smiles": "CCC(C)NC(=O)CCSCCC(=O)NC(C)CC", "note": "(stereo not shown)", "hERG current change (%, negative = inhibition) at 1uM": 12.3}, {"smiles": "CC1CCN(c2ccc(C(=O)O)cc2N)CC1", "hERG current change (%, negative = inhibition) at 1uM": 10.8}, {"smiles": "CN(C)C(=O)Cn1c(=O)n(S(=O)(=O)c2ccccc2)c2ccccc21", "hERG current change (%, negative = inhibition) at 1uM": 14.3}, {"smiles": "COc1ccccc1NC(=O)c1coc(=O)c(Br)c1", "hERG current change (%, negative = inhibition) at 1uM": 7.33}, {"smiles": "CCN(CC)S(=O)(=O)c1cc(OC)c(Cl)cc1OC", "hERG current change (%, negative = inhibition) at 1uM": 4.9}, {"smiles": "CC1(C)CC(NC(=O)c2cccc3ccccc23)CC(C)(C)N1", "hERG current change (%, negative = inhibition) at 1uM": 12.1}, {"smiles": "CC1CCN(C(=O)CCNS(=O)(=O)c2ccc3c(c2)oc(=O)n3C)CC1", "hERG current change (%, negative = inhibition) at 1uM": 19.9}, {"smiles": "Nc1cc(=O)[nH]c(SCC(=O)Nc2ncc(C(F)(F)F)cc2Cl)n1", "hERG current change (%, negative = inhibition) at 1uM": 14.2}, {"smiles": "CCNC(=O)/C(=C\\c1ccccc1)NC(=O)/C=C/c1ccccc1", "hERG current change (%, negative = inhibition) at 1uM": 7.3}, {"smiles": "CC(C)(C)NS(=O)(=O)c1cc(C(=O)O)ccc1Cl", "hERG current change (%, negative = inhibition) at 1uM": 5.17}, {"smiles": "Cc1ccc(-c2csc(Cc3nc(-c4cc5ccccc5oc4=O)cs3)n2)cc1", "hERG current change (%, negative = inhibition) at 1uM": 5.29}, {"smiles": "CCOC(=O)CSc1nnc2c3ccccc3n(CC)c2n1", "hERG current change (%, negative = inhibition) at 1uM": 6.8}, {"smiles": "CS(=O)(=O)c1ccc(Cl)c(NC(=O)C2CCCN(C(=O)c3ccc(Cl)cc3)C2)c1", "note": "(stereo not shown)", "hERG current change (%, negative = inhibition) at 1uM": 10.1}, {"smiles": "CC(C)C[C@H](NC(=O)NCCc1ccc(Cl)cc1)C(=O)O", "hERG current change (%, negative = inhibition) at 1uM": 5.67}, {"smiles": "CCOC(=O)C1(Cc2ccccc2C)CCCN(C(=O)c2ccc(OC)o2)C1", "note": "(stereo not shown)", "hERG current change (%, negative = inhibition) at 1uM": 1.78}, {"smiles": "O=C(N[C@@H](CO)C(=O)NCc1ccccc1)c1ccc(C(F)(F)F)cc1", "hERG current change (%, negative = inhibition) at 1uM": 13.9}, {"smiles": "O=C(Nc1ccn([C@H]2CC[C@@H](CO)O2)c(=O)n1)c1ccccc1", "hERG current change (%, negative = inhibition) at 1uM": 5.34}, {"smiles": "C=CCN(c1ccc(C(N)=O)cc1)S(C)(=O)=O", "hERG current change (%, negative = inhibition) at 1uM": 14.2}, {"smiles": "O=C(Nc1cccc2ncccc12)c1ccc(OCc2ccccc2)cc1", "hERG current change (%, negative = inhibition) at 1uM": 2.14}, {"smiles": "O=C1CC(c2cccc(Cl)c2)CC(O)=C1C=NC1CCCC1", "note": "(stereo not shown)", "hERG current change (%, negative = inhibition) at 1uM": -11}, {"smiles": "CC(C)CN(C(=O)COC(=O)c1ccc2ccccc2n1)C1CCS(=O)(=O)C1", "note": "(stereo not shown)", "hERG current change (%, negative = inhibition) at 1uM": 11.3}, {"smiles": "Cc1cc(NC(=O)C(C)N2C(=O)c3ccccc3S2(=O)=O)no1", "note": "(stereo not shown)", "hERG current change (%, negative = inhibition) at 1uM": 9.19}, {"smiles": "CC(=O)N1N=C(c2ccco2)CC1c1ccc(Br)cc1", "note": "(stereo not shown)", "hERG current change (%, negative = inhibition) at 1uM": 6.07}, {"smiles": "CN(C(=O)CNC(=O)c1ccc(Br)o1)C1CCCCC1", "hERG current change (%, negative = inhibition) at 1uM": 18.9}, {"smiles": "CCN(CC)C(=O)CSc1nnc(-c2cnccn2)n1-c1ccccc1", "hERG current change (%, negative = inhibition) at 1uM": 6.53}, {"smiles": "CN(C)c1ccc(C(=O)Nc2ccc(S(=O)(=O)Nc3nccs3)cc2)cc1", "hERG current change (%, negative = inhibition) at 1uM": 18.9}, {"smiles": "Cc1ccc(/C=C/S(=O)(=O)NCC(=O)OCC(=O)Nc2ccc(C(=O)N(C)C)cc2)cc1", "hERG current change (%, negative = inhibition) at 1uM": 12.7}, {"smiles": "COc1cccc(C(=O)Nn2cnnc2)c1OC", "hERG current change (%, negative = inhibition) at 1uM": 12.9}, {"smiles": "CCS(=O)(=O)N1CCN(C(=O)c2cccc3ccccc23)CC1", "hERG current change (%, negative = inhibition) at 1uM": 11.2}, {"smiles": "CCCCCCC(c1c(C)n(C)n(-c2ccccc2)c1=O)c1c(C)n(C)n(-c2ccccc2)c1=O", "hERG current change (%, negative = inhibition) at 1uM": 1.2}, {"smiles": "Cc1cnc(C(=O)OCC(=O)N2CCN(C(=O)c3ccco3)CC2)cn1", "hERG current change (%, negative = inhibition) at 1uM": -5.27}, {"smiles": "Cc1cc(C)cc(N2C(=O)CC(Sc3nnnn3-c3ccccc3)C2=O)c1", "note": "(stereo not shown)", "hERG current change (%, negative = inhibition) at 1uM": 5.47}]}]}
